The supplement of paper PMC4967469
IC50 is the fitted dose that halves viability relative to control wells, and lower means more sensitive; a limit (>, <) means that the fit lies beyond the doses tested. AUC sums up the same curve from the lowest dose to the 256-fold higher top dose; the more sensitive the line, the further below 1. For part of these data: Where the top dose is marked as inferred, it is not printed in the source and was worked back from the curve model.

Assays:
Experiment in all cases: Viability of human cancer cell lines after 72 h of drug (GDSC screen)
Vismodegib = compound: CS(=O)(=O)c1ccc(C(=O)Nc2ccc(Cl)c(-c3ccccn3)c2)c(Cl)c1 [Vismodegib]; conditions: top dose 10 µM; top dose inferred
Protocol: (§1)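 Human cancer cell lines in 384-well plates, medium with 10% serum, drug for 72 h over a 256-fold dose range (nine 2-fold or five 4-fold steps up to the top dose). Adherent lines were fixed and stained with the nucleic acid dye Syto60, suspension lines read with resazurin; signal relative to control wells, capped at 0 and 100%. One two-parameter sigmoid per drug and line, fitted in a mixed model over all curves with the slope shared within a line.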

BMX-IN-1 (QL-XII-61) = compound: C=CC(=O)Nc1cc(-n2c(=O)ccc3cnc4ccc(-c5ccc(NS(C)(=O)=O)cc5)cc4c32)ccc1C [BMX-IN-1 (QL-XII-61)]; conditions: top dose 10 µM; top dose inferred
Protocol: as §1

CCT018159 = compound: CCc1cc(-c2n[nH]c(C)c2-c2ccc3c(c2)OCCO3)c(O)cc1O [CCT018159]; conditions: top dose 10 µM; top dose inferred
Protocol: as §1

BIX02189 = compound: CN(C)Cc1cccc(N=C(c2ccccc2)c2c(O)[nH]c3cc(C(=O)N(C)C)ccc23)c1 [BIX02189]; conditions: top dose 20 µM; top dose inferred
Protocol: as §1

TG101348 = compound: Cc1cnc(Nc2ccc(OCCN3CCCC3)cc2)nc1Nc1cccc(S(=O)(=O)NC(C)(C)C)c1 [TG101348]; conditions: top dose 10.24 µM
Protocol: as §1

17-AAG = compound: C=CCNC1=C2C[C@@H](C)C[C@H](OC)[C@H](O)[C@@H](C)/C=C(\C)[C@H](OC(N)=O)[C@@H](OC)/C=C\C=C(/C)C(=O)NC(=CC1=O)C2=O [17-AAG]; conditions: top dose 1 µM
Protocol: as §1

VX-11e = compound: Cc1cnc(Nc2ccc(F)cc2Cl)nc1-c1c[nH]c(C(=O)N[C@H](CO)c2cccc(Cl)c2)c1 [VX-11e]; conditions: top dose 5.12 µM; top dose inferred
Protocol: as §1

OSI-027 = compound: COc1cccc2cc(-c3nc([C@H]4CC[C@H](C(=O)O)CC4)n4ncnc(N)c34)[nH]c12 [OSI-027]; conditions: top dose 20 µM
Protocol: as §1

UNC1215 = compound: O=C(c1ccc(C(=O)N2CCC(N3CCCC3)CC2)c(Nc2ccccc2)c1)N1CCC(N2CCCC2)CC1 [UNC1215]; conditions: top dose 1 µM; top dose inferred
Protocol: as §1

Doxorubicin = compound: COc1cccc2c1C(=O)c1c(O)c3c(c(O)c1C2=O)C[C@@](O)(C(=O)CO)C[C@@H]3O[C@H]1C[C@H](N)[C@H](O)[C@H](C)O1 [Doxorubicin]; conditions: top dose 1.024 µM
Protocol: as §1

Dimethyloxalylglycine = compound: COC(=O)CNC(=O)C(=O)OC [Dimethyloxalylglycine]; conditions: top dose 4000 µM; top dose inferred
Protocol: as §1

Row | Cell Line | AUC (Vismodegib) | IC50 (Vismodegib) | AUC (BMX-IN-1 (QL-XII-61)) | IC50 (BMX-IN-1 (QL-XII-61)) | AUC (CCT018159) | IC50 (CCT018159) | AUC (BIX02189) | IC50 (BIX02189) | AUC (TG101348) | IC50 (TG101348) | AUC (17-AAG) | IC50 (17-AAG) | AUC (VX-11e) | IC50 (VX-11e) | AUC (OSI-027) | IC50 (OSI-027) | AUC (UNC1215) | IC50 (UNC1215) | AUC (Doxorubicin) | IC50 (Doxorubicin) | AUC (Dimethyloxalylglycine) | IC50 (Dimethyloxalylglycine)
1 | HT-115 (large intestine, adherent) | 0.991 | > 10 µM | 0.942 | > 10 µM | 0.975 | > 10 µM | 0.989 | > 20 µM | 0.954 | > 10.2 µM | 0.895 | > 1 µM | 0.977 | > 5.12 µM | 0.986 | > 20 µM | 0.991 | > 1 µM | 0.991 | > 1.02 µM | 0.478 | 219 µM
2 | NCI-H1563 (lung adenocarcinoma, adherent) | 0.985 | > 10 µM | 0.973 | > 10 µM | 0.985 | > 10 µM | 0.925 | > 20 µM | 0.802 | 6.2 µM | 0.798 | 0.58 µM | 0.958 | > 5.12 µM | 0.849 | 19.5 µM | 0.983 | > 1 µM | 0.779 | 0.5 µM | 0.433 | 158 µM
3 | NCI-H1755 (lung adenocarcinoma, adherent) | 0.983 | > 10 µM | 0.968 | > 10 µM | 0.763 | 4.17 µM | 0.835 | 16.1 µM | 0.453 | 0.465 µM | 0.538 | 0.0807 µM | 0.445 | 0.22 µM | 0.853 | 19.6 µM | 0.979 | > 1 µM | 0.823 | 0.735 µM | 0.759 | 1610 µM
4 | LP-1 (myeloma, suspension) | 0.991 | > 10 µM | 0.993 | > 10 µM | 0.973 | > 10 µM | 0.964 | > 20 µM | 0.783 | 3.56 µM | 0.993 | > 1 µM | 0.967 | > 5.12 µM | 0.251 | 0.282 µM | 0.987 | > 1 µM | 0.968 | > 1.02 µM | 0.446 | 183 µM
5 | OCI-AML3 (acute myeloid leukaemia, suspension) | 0.981 | > 10 µM | 0.634 | 1.38 µM | 0.945 | > 10 µM | 0.837 | 10.7 µM | 0.66 | 1.66 µM | 0.919 | > 1 µM | 0.626 | 0.673 µM | 0.174 | 0.158 µM | 0.99 | > 1 µM | 0.712 | 0.228 µM | 0.514 | 271 µM
6 | NOMO-1 (acute myeloid leukaemia, suspension) | 0.887 | > 10 µM | 0.863 | > 10 µM | 0.876 | > 10 µM | 0.878 | > 20 µM | 0.632 | 1.56 µM | 0.865 | > 1 µM | 0.801 | 2.9 µM | 0.352 | 0.457 µM | 0.98 | > 1 µM | 0.692 | 0.239 µM | 0.44 | 168 µM
7 | GT3TKB (stomach, adherent) | 0.987 | > 10 µM | 0.932 | > 10 µM | 0.802 | 4.23 µM | 0.99 | > 20 µM | 0.979 | > 10.2 µM | 0.524 | 0.0722 µM | 0.989 | > 5.12 µM | 0.916 | > 20 µM | 0.989 | > 1 µM | 0.4 | 0.0354 µM | 0.468 | 207 µM
8 | KYSE-450 (oesophagus, adherent) | 0.988 | > 10 µM | 0.98 | > 10 µM | 0.925 | > 10 µM | 0.866 | 16.2 µM | 0.638 | 1.51 µM | 0.94 | > 1 µM | 0.815 | 2.61 µM | 0.169 | 0.134 µM | 0.987 | > 1 µM | 0.43 | 0.0417 µM | 0.765 | 1390 µM
9 | MHH-ES-1 (Ewing sarcoma, adherent) | 0.972 | > 10 µM | 0.899 | > 10 µM | 0.866 | 8.7 µM | 0.875 | 19.3 µM | 0.608 | 1.26 µM | 0.737 | 0.294 µM | 0.942 | > 5.12 µM | 0.195 | 0.157 µM | 0.984 | > 1 µM | 0.397 | 0.0335 µM | 0.438 | 169 µM
10 | HCC-15 (lung squamous cell carcinoma, adherent) | 0.962 | > 10 µM | 0.97 | > 10 µM | 0.925 | > 10 µM | 0.968 | > 20 µM | 0.896 | > 10.2 µM | 0.57 | 0.103 µM | 0.949 | > 5.12 µM | 0.831 | 18 µM | 0.933 | > 1 µM | 0.722 | 0.331 µM | 0.537 | 323 µM
11 | MFE-296 (endometrium, adherent) | 0.975 | > 10 µM | 0.852 | 8.65 µM | 0.911 | > 10 µM | 0.962 | > 20 µM | 0.924 | > 10.2 µM | 0.611 | 0.129 µM | 0.979 | > 5.12 µM | 0.355 | 0.48 µM | 0.983 | > 1 µM | 0.522 | 0.0737 µM | 0.538 | 321 µM
12 | COR-L95 (small cell lung carcinoma, adherent) | 0.987 | > 10 µM | 0.961 | > 10 µM | 0.986 | > 10 µM | 0.971 | > 20 µM | 0.854 | 10.2 µM | 0.915 | > 1 µM | 0.982 | > 5.12 µM | 0.654 | 3.59 µM | 0.985 | > 1 µM | 0.768 | 0.445 µM | 0.639 | 646 µM
